According to patent US20250388684A1 (published 2025):

Assays:
[1] = molecular target: T1, human CCR8 (C-C chemokine receptor type 8) (human, UniProt P51685 1-355); assay: FACS cell binding; human plasma 37°C 7 Day
[2] = molecular target: T1, human CCR8 (C-C chemokine receptor type …); assay: FACS cell binding; human plasma 37°C 14 Day
[3] = molecular target: T1, human CCR8 (C-C chemokine receptor type …); assay: FACS cell binding; Control

T1 sequence (P51685 whole entry): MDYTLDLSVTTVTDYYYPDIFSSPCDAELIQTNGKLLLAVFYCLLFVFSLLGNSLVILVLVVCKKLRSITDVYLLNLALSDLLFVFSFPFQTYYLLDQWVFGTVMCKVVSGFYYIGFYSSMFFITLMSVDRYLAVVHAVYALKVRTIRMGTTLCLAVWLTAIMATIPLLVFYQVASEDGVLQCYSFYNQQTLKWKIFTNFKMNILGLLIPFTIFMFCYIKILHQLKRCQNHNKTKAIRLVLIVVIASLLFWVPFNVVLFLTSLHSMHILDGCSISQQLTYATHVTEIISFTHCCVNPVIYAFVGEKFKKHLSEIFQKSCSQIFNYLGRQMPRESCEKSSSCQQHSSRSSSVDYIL

- EC50 [1]: 0.0426 µg/mL
- EC50 [2]: 0.0424 µg/mL
- EC50 [3]: 0.0367 µg/mL
B1: 13F3H6-hz (humanized anti-human CCR8 monoclonal antibody, human IgG1) (antibody)
heavy: EVQLVESGGGLVQPGESLRLSCAASGFTFNAYAMNWVRQAPGQGLEWVARIRTKSNNYATYYADSVKGRFTISRDDSKNTLYLEMNSLRAEDTAVYYCVRHKKVREGYAMDYWGQGTLVTVSS[left out - human IgG1 constant region]
light: DIVLTQSPASLVLSLGQRATISCRASKSVSTSGYTYMHWYQQKPGQPPKLLIYLASNLESGVPARFSGSGSGTDFTLNIHPVEEEDAATYYCQHSRELPFTFGSGTKLEIKRTVAAPSVFIFPPSDEQLKSGTASVVCLLNNFYPREAKVQWKVDNALQSGNSQESVTEQDSKDSTYSLSSTLTLSKADYEKHKVYACEVTHQGLSSPVTKSFNRGEC
